The list shows a part of the results. The full chains were built here from the parent and the listed change. Values near 0.05 are background.
B1: TEV protease; numbered along this chain (parent)
chain: MGESLFKGPRDYNPISSSICHLTNESDGHTTSLYGIGFGPFIITNKHLFRRNNGTLVVQSLHGVFKVKDTTTLQQHLVDGRDMIIIRMPKDFPPFPQKLKFREPQREERICLVTTNFQTKSMSSMVSDTSCTFPSGDGIFWKHWIQTKDGQCGSPLVSTRDGFIVGIHSASNFTNTNNYFTSVPKNFMELLTNQEAQQWVSGWRLNADSVLWGGHKVFMVKPEEPFQPVKEATQL

Variants of: B1
Assay: raw area under fraction-flipped curve 0-4 h after induction (AUC4h, not background-subtracted), DNA-recorder readout of cleavage of the substrate (dimensionless); higher = more cleavage of the substrate by the protease variant
Conditions: temperature: 34 °C; time window: 0-4 h after rhamnose induction
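Also: Bxb1 expression induced with 0.2% (w/v) L-rhamnose at OD600 near 0.5, cultures sampled hourly, flipped fraction per protease–substrate barcode pair counted by paired-end Illumina sequencing.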

Row | Variant | area with substrate ENLYFQC | area with substrate ENLYFQG | area with substrate ENLYFQI | area with substrate ENLYFQS | area with substrate ENLYFQH | area with substrate ENLYFQL | area with substrate ENLYFQM | area with substrate ENLYFQQ | area with substrate ENLYFQT | area with substrate ENLYFQW
1 | MGESLFKGPRDYNPISSSICHLTNESDGHTTSLYGIGFGPFIITNKHLFRRNNGTLVVQSLHGVFKVKDTTTLQQHLVDGRDMIIIRMPKDFPPFPQKLKFREPQREERICLVTTNFQTKSMSSMVSDTSCTFPSGDGIFWKHWIQTKDGQCGSPLVSTRDGFIVGIHSASNFTNTNNYFTSVPKNFMELLTNQEAQQWVSGWRLNADSVLNGGHKVFMVKPEEPFQPVKEATQL [W212N] | 0.0835 | 0.0792 | 0.0157 | 0.0844 |  |  |  |  |  | 
2 | MGESLFKGPRDYNPISSSICHLTNESDGHTTSLYGIGFGPFIITNKHLFRRNNGTLVVQSLHGVFKVKDTTTLQQHLVDGRDMIIIRMPKDFPPFPQKLKFREPQREERICLVTTNFQTKSMSSMVSDTSCTFPSGDGIFWKHWIQTKDGQCGSPLVSTRDGFIVGIHSASNFTNTNNYFTSVPKNFMELLTNQEAQQWVSGWRLNADSVLWTGHKVFMVKPEEPFQPVKEATQL [G213T] | 0.0695 | 0.0728 | 0.0765 | 0.0598 | 0.0584 | 0.0478 | 0.044 | 0.033 | 0.0564 | 0.0674
3 | MGESLFKGPRDYNPISSSICHLTNESDGHTTSLYGIGFGPFIITNKHLFRRNNGTLVVQSLHGVFKVKDTTTLQQHLVDGRDMIIIRMPKDFPPFPQKLKFREPQREERICLVTTNFQTKSMSSMVSDTSCTFPSGDGIFWKHWIQTKDGQCGSPLVSTRDGFIVGIHSASNFTNTNNYFTSVPKNFMELLTNQEAQQWVSGWRLNADSVLWGWHKVFMVKPEEPFQPVKEATQL [G214W] | 0.0679 |  |  | 0.0694 | 0.0589 |  |  |  |  | 
4 | MGESLFKGPRDYNPISSSICHLTNESDGHTTSLYGIGFGPFIITNKHLFRRNNGTLVVQSLHGVFKVKDTTTLQQHLVDGRDMIIIRMPKDFPPFPQKLKFREPQREERICLVTTNFQTKSMSSMVSDTSCTFPSGDGIFWKHWIQTKDGQCGSPLVSTRDGFIVGIHSASNFTNTNNYFTSVPKNFMELLTNQEAQQWVSGWRLNADSVLWGGIKVFMVKPEEPFQPVKEATQL [H215I] | 0.0883 |  |  | 0.0744 |  |  |  |  |  | 
5 | MGESLFKGPRDYNPISSSICHLTNESDGHTTSLYGIGFGPFIITNKHLFRRNNGTLVVQSLHGVFKVKDTTTLQQHLVDGRDMIIIRMPKDFPPFPQKLKFREPQREERICLVTTNFQTKSMSSMVSDTSCTFPSGDGIFWKHWIQTKDGQCGSPLVSTRDGFIVGIHSASNFTNTNNYFTSVPKNFMELLTNQEAQQWVSGWRLNADSVLWGGLKVFMVKPEEPFQPVKEATQL [H215L] | 0.0787 |  |  | 0.0819 |  | 0.0613 | 0.0611 |  | 0.059 | 
6 | MGESLFKGPRDYNPISSSICHLTNESDGHTTSLYGIGFGPFIITNKHLFRRNNGTLVVQSLHGVFKVKDTTTLQQHLVDGRDMIIIRMPKDFPPFPQKLKFREPQREERICLVTTNFQTKSMSSMVSDTSCTFPSGDGIFWKHWIQTKDGQCGSPLVSTRDGFIVGIHSASNFTNTNNYFTSVPKNFMELLTNQEAQQWVSGWRLNADSVLWGGHKEFMVKPEEPFQPVKEATQL [V217E] | 0.0468 | 0.0635 | 0.0486 | 0.0602 |  | 0.0611 | 0.0427 |  |  | 
7 | MGESLFKGPRDYNPISSSICHLTNESDGHTTSLYGIGFGPFIITNKHLFRRNNGTLVVQSLHGVFKVKDTTTLQQHLVDGRDMIIIRMPKDFPPFPQKLKFREPQREERICLVTTNFQTKSMSSMVSDTSCTFPSGDGIFWKHWIQTKDGQCGSPLVSTRDGFIVGIHSASNFTNTNNYFTSVPKNFMELLTNQEAQQWVSGWRLNADSVLWGGHKVFMVKLEEPFQPVKEATQL [P222L] | 0.0848 |  |  | 0.0878 | 0.0638 |  |  |  |  | 
8 | MGESLFKGPRDYNPISSSICHLTNESDGHTTSLYGIGFGPFIITNKHLFRRNNGTLVVQSLHGVFKVKDTTTLQQHLVDGRDMIIIRMPKDFPPFPQKLKFREPQREERICLVTTNFQTKSMSSMVSDTSCTFPSGDGIFWKHWIQTKDGQCGSPLVSTRDGFIVGIHSASNFTNTNNYFTSVPKNFMELLTNQEAQQWVSGWRLNADSVLWGGHKVFMVKTEEPFQPVKEATQL [P222T] | 0.0959 |  | 0.0618 | 0.0969 |  | 0.0733 | 0.0779 |  | 0.0757 | 
9 | MGESLFKGPRDYNPISSSICHLTNESDGHTTSLYGIGFGPFIITNKHLFRRNNGTLVVQSLHGVFKVKDTTTLQQHLVDGRDMIIIRMPKDFPPFPQKLKFREPQREERICLVTTNFQTKSMSSMVSDTSCTFPSGDGIFWKHWIQTKDGQCGSPLVSTRDGFIVGIHSASNFTNTNNYFTSVPKNFMELLTNQEAQQWVSGWRLNADSVLWGGHKVFMVKPEEPFQRVKEATQL [P228R] | 0.126 |  | 0.0686 | 0.0958 |  | 0.0584 |  | 0.0841 | 0.0698 | 0.0703
10 | MGESLFKGPRDYNPISSSICHLTNESDGHTTSLYGIGFGPFIITNKHLFRRNNGTLVVQSLHGVFKVKDTTTLQQHLVDGRDMIIIRMPKDFPPFPQKLKFREPQREERICLVTTNFQTKSMSSMVSDTSCTFPSGDGIFWKHWIQTKDGQCGSPLVSTRDGFIVGIHSASNFTNTNNYFTSVPKNFMELLTNQEAQQWVSGWRLNADSVLWGGHKVFMVKPEEPFQPDKEATQL [V229D] | 0.151 |  |  | 0.111 |  |  |  |  |  | 
11 | MGESLFKGPRDYNPISSSICHLTNESDGHTTSLYGIGFGPFIITNKHLFRRNNGTLVVQSLHGVFKVKDTTTLQQHLVDGRDMIIIRMPKDFPPFPQKLKFREPQREERICLVTTNFQTKSMSSMVSDTSCTFPSGDGIFWKHWIQTKDGQCGSPLVSTRDGFIVGIHSASNFTNTNNYFTSVPKNFMELLTNQEAQQWVSGWRLNADSVLWGGHKVFMVKPEEPFQPVKEAPQL [T233P] | 0.161 | 0.0678 | 0.0527 | 0.104 |  | 0.086 | 0.0778 |  |  | 0.0702

Same assay, conditions: temperature: 34 °C; time window: 0-4 h after rhamnose induction

Row | Variant | area with substrate ENLYFQY | area with substrate ENLYFQD | area with substrate ENLYFQR | area with substrate ENLYFQF | area with substrate ENLYFQK | area with substrate ENLYFQN | area with substrate ENLYFQP | area with substrate ENLYFQV
12 | MGESLFKGPRDYNPISSSICHLTNESDGHTTSLYGIGFGPFIITNKHLFRRNNGTLVVQSLHGVFKVKDTTTLQQHLVDGRDMIIIRMPKDFPPFPQKLKFREPQREERICLVTTNFQTKSMSSMVSDTSCTFPSGDGIFWKHWIQTKDGQCGSPLVSTRDGFIVGIHSASNFTNTNNYFTSVPKNFMELLTNQEAQQWVSGWRLNADSVLWTGHKVFMVKPEEPFQPVKEATQL [G213T] | 0.0599 |  |  |  |  |  |  | 
13 | MGESLFKGPRDYNPISSSICHLTNESDGHTTSLYGIGFGPFIITNKHLFRRNNGTLVVQSLHGVFKVKDTTTLQQHLVDGRDMIIIRMPKDFPPFPQKLKFREPQREERICLVTTNFQTKSMSSMVSDTSCTFPSGDGIFWKHWIQTKDGQCGSPLVSTRDGFIVGIHSASNFTNTNNYFTSVPKNFMELLTNQEAQQWVSGWRLNADSVLWGWHKVFMVKPEEPFQPVKEATQL [G214W] |  | 0.103 | 0.0377 |  |  |  |  | 
14 | MGESLFKGPRDYNPISSSICHLTNESDGHTTSLYGIGFGPFIITNKHLFRRNNGTLVVQSLHGVFKVKDTTTLQQHLVDGRDMIIIRMPKDFPPFPQKLKFREPQREERICLVTTNFQTKSMSSMVSDTSCTFPSGDGIFWKHWIQTKDGQCGSPLVSTRDGFIVGIHSASNFTNTNNYFTSVPKNFMELLTNQEAQQWVSGWRLNADSVLWGGLKVFMVKPEEPFQPVKEATQL [H215L] |  | 0.0595 | 0.0596 | 0.0553 | 0.0438 | 0.0619 | 0.0529 | 
15 | MGESLFKGPRDYNPISSSICHLTNESDGHTTSLYGIGFGPFIITNKHLFRRNNGTLVVQSLHGVFKVKDTTTLQQHLVDGRDMIIIRMPKDFPPFPQKLKFREPQREERICLVTTNFQTKSMSSMVSDTSCTFPSGDGIFWKHWIQTKDGQCGSPLVSTRDGFIVGIHSASNFTNTNNYFTSVPKNFMELLTNQEAQQWVSGWRLNADSVLWGGHKEFMVKPEEPFQPVKEATQL [V217E] |  | 0.0636 | 0.0503 |  | 0.0704 | 0.0517 |  | 
16 | MGESLFKGPRDYNPISSSICHLTNESDGHTTSLYGIGFGPFIITNKHLFRRNNGTLVVQSLHGVFKVKDTTTLQQHLVDGRDMIIIRMPKDFPPFPQKLKFREPQREERICLVTTNFQTKSMSSMVSDTSCTFPSGDGIFWKHWIQTKDGQCGSPLVSTRDGFIVGIHSASNFTNTNNYFTSVPKNFMELLTNQEAQQWVSGWRLNADSVLWGGHKVFMVKLEEPFQPVKEATQL [P222L] |  |  |  |  | 0.0673 | 0.0622 |  | 0.066
17 | MGESLFKGPRDYNPISSSICHLTNESDGHTTSLYGIGFGPFIITNKHLFRRNNGTLVVQSLHGVFKVKDTTTLQQHLVDGRDMIIIRMPKDFPPFPQKLKFREPQREERICLVTTNFQTKSMSSMVSDTSCTFPSGDGIFWKHWIQTKDGQCGSPLVSTRDGFIVGIHSASNFTNTNNYFTSVPKNFMELLTNQEAQQWVSGWRLNADSVLWGGHKVFMVKTEEPFQPVKEATQL [P222T] |  | 0.0916 | 0.0728 | 0.0704 |  |  |  | 
18 | MGESLFKGPRDYNPISSSICHLTNESDGHTTSLYGIGFGPFIITNKHLFRRNNGTLVVQSLHGVFKVKDTTTLQQHLVDGRDMIIIRMPKDFPPFPQKLKFREPQREERICLVTTNFQTKSMSSMVSDTSCTFPSGDGIFWKHWIQTKDGQCGSPLVSTRDGFIVGIHSASNFTNTNNYFTSVPKNFMELLTNQEAQQWVSGWRLNADSVLWGGHKVFMVKPEEPFQRVKEATQL [P228R] |  |  | 0.0803 |  | 0.0613 |  |  | 
19 | MGESLFKGPRDYNPISSSICHLTNESDGHTTSLYGIGFGPFIITNKHLFRRNNGTLVVQSLHGVFKVKDTTTLQQHLVDGRDMIIIRMPKDFPPFPQKLKFREPQREERICLVTTNFQTKSMSSMVSDTSCTFPSGDGIFWKHWIQTKDGQCGSPLVSTRDGFIVGIHSASNFTNTNNYFTSVPKNFMELLTNQEAQQWVSGWRLNADSVLWGGHKVFMVKPEEPFQPDKEATQL [V229D] |  |  | 0.0614 |  | 0.0621 |  |  | 
20 | MGESLFKGPRDYNPISSSICHLTNESDGHTTSLYGIGFGPFIITNKHLFRRNNGTLVVQSLHGVFKVKDTTTLQQHLVDGRDMIIIRMPKDFPPFPQKLKFREPQREERICLVTTNFQTKSMSSMVSDTSCTFPSGDGIFWKHWIQTKDGQCGSPLVSTRDGFIVGIHSASNFTNTNNYFTSVPKNFMELLTNQEAQQWVSGWRLNADSVLWGGHKVFMVKPEEPFQPVKEAPQL [T233P] |  |  |  |  |  | 0.0783 |  | 
